Measured values published in PubChem BioAssay AID504339 (National Center for Advancing Translational Sciences (NCATS), 2011).
Out of some 390,000 compounds screened, about 17,000 (4.4%) were called active. This list was built around the results that the source calls inconclusive (neither active nor inactive); the mix of calls is not that of the screen. The call rests on the fitted dose curve; in most records, active means well fitted inhibition curve with a large enough effect; inconclusive means small, poorly fitted or top-dose-only effect; inactive means no such curve, though single readings can be large or run the other way. Potencies of inconclusive entries are doubtful fits and often do not repeat.

Target: Lysine-specific demethylase 4A (Homo sapiens) (UniProt O75164)
Test: qHTS Assay for Inhibitors of JMJD2A-Tudor Domain; further: nearly all actives have a fitted effect of over 50% in size
Details: AlphaScreen JMJD2A-Tudor / H3K4me3 peptide binding; activity change, negative = inhibition: at 114 µM (top of the series)
On the % scale 0 is the no-effect control and ±100 the full control effect; potency means the concentration at half of the fitted maximal effect; tags describe the fitted curve by direction and shape.

Chain of UniProt O75164 (O75164 whole entry, looked up, the tested form may be a part): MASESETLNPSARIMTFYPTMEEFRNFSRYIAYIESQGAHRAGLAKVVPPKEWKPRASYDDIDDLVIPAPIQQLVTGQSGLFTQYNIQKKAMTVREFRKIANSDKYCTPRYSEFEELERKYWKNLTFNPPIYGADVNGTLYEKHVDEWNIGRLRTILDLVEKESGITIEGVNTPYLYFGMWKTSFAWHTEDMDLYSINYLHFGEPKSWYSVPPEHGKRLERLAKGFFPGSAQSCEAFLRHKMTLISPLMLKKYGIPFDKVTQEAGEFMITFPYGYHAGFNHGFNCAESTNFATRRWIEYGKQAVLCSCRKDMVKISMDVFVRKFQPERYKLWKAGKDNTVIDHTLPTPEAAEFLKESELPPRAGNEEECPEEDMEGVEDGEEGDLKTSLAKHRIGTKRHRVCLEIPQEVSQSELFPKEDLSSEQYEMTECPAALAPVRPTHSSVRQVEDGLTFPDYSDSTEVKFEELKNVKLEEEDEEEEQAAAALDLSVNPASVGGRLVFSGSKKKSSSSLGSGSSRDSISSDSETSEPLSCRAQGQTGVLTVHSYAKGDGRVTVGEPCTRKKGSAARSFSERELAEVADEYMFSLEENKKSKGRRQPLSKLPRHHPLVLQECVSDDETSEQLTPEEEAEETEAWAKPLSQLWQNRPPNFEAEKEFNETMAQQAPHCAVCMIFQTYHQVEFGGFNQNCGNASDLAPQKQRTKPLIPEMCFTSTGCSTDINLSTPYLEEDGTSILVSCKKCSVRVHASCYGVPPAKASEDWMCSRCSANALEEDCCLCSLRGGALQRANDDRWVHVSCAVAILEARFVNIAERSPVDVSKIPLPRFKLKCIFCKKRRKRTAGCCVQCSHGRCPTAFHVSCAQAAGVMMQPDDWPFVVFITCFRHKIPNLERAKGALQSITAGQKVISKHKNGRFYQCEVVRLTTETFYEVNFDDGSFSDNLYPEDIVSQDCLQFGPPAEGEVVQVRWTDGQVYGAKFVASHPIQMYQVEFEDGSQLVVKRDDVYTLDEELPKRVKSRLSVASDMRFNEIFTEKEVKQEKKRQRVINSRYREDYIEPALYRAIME

Potency, inconclusive:
CC(C)Cn1c(SC(C)C(=O)Nc2ccc(N3CCOCC3)cc2)nc2ccccc21 (stereo not given) 56.2 µM [inhibitor, partial curve]
O=C(O/N=C\c1ccc(N2CCOCC2)c([N+](=O)[O-])c1)c1ccc(F)cc1 17.8 µM [inhibitor, full curve]
Cc1cccc(C2Nc3cccc4cccc(c34)N2)c1 39.8 µM [inhibitor, partial curve]
CCc1ccc2c(c1)NC(c1cccs1)=NC(c1ccc(F)cc1)=N2 56.2 µM [inhibitor, partial curve]
C/C=C\C=C\C(=O)N1CC2(CC(c3cccc(NC(=O)CC(c4ccccc4)c4ccccc4)c3)=NO2)C[C@H]1C(N)=O (stereo not given in full) 89.1 µM [inhibitor, partial curve]
O=C1OCCN1C(=O)[C@H]1[C@H](c2ccc([N+](=O)[O-])cc2)C(c2ccccc2)=NN1c1ccc(Br)cc1 56.2 µM [inhibitor, partial curve, poor fit]
COc1ccc(NC(=O)Cn2c(=O)oc3cc(S(=O)(=O)N4CCC(C)CC4)ccc32)c(OC)c1 12.6 µM [inhibitor, full curve, poor fit]
COc1ccc(N2CCN(c3ncnc4sc(C(=O)NCC5CCCO5)c(C)c34)CC2)cc1 (stereo not given) 63.1 µM [inhibitor, partial curve]
CCCS(=O)(=O)c1c(Nc2ccccc2C)sc(C(=O)c2ccccc2)c1N 17.8 µM [inhibitor, full curve]
CCOc1ccc(Nc2nc(N)c3ccccc3n2)cc1 70.8 µM [inhibitor, partial curve, poor fit]
CCCc1cc(C(N)=O)c(NC(=O)c2ccoc2C)s1 70.8 µM [inhibitor, partial curve, poor fit]
COc1ccccc1NC(=O)N1CCC(C(=O)c2ccc(Cl)cc2)CC1 0.708 µM [inhibitor, full curve, poor fit]
O=C(Cn1nc(-c2ccccc2)c2ccccc2c1=O)Nc1cccc(O)c1 79.4 µM [inhibitor, partial curve]
Cc1ccc(-c2n[nH]c(=S)n2/N=C/c2ccc(C)s2)cc1 50.1 µM [inhibitor, partial curve]
O=C(c1ccc(-c2ccc([N+](=O)[O-])cc2)o1)N1CCCC(C(F)(F)F)C1 (stereo not given) 50.1 µM [inhibitor, partial curve]
CCn1c(=O)n(CC)c2cc(N3CCCCC3)c(NC(=O)Nc3ccccc3Cl)cc21 22.4 µM [inhibitor, full curve]
CCN(CC(=O)Nc1ccccc1OC)C(=O)c1cc(-c2ccccc2)nn1-c1ccccc1 89.1 µM [inhibitor, single point]
Cc1ccc(Nc2nc(-c3cccs3)cs2)nc1 79.4 µM [inhibitor, partial curve]
O=C(Nc1nnc(C2CC2)s1)c1cc([N+](=O)[O-])ccc1N1CCCCC1 25.1 µM [inhibitor, single point]
COc1ccc([N+](=O)[O-])cc1NCc1cccc([N+](=O)[O-])c1 31.6 µM [inhibitor, partial curve]
CC(=O)C1C(=O)c2c(cccc2[N+](=O)[O-])C1=Nc1ccc(S(N)(=O)=O)cc1 (stereo not given) 12.6 µM [inhibitor, partial curve]
CC(NC(=O)c1ccccc1)C(=O)NC1=NCCS1 (stereo not given) 39.8 µM [inhibitor, single point]
Cc1ccc(/C=C2\CC(C)CC3=C2NC(=S)NC3c2ccc(C)cc2)cc1 (stereo not given) 50.1 µM [inhibitor, partial curve]
CCc1c(C)sc2nc3c(C(=O)N4CCOCC4)cc(C(=O)c4ccccc4O)cn3c(=O)c12 44.7 µM [inhibitor, partial curve]
Cc1ccc2[nH]c(O)c(N=Nc3ccccc3C)c2c1 44.7 µM [inhibitor, partial curve, poor fit]
COc1ccc(NC(=O)Cc2ccc(C)c(C)c2)cc1Cl 50.1 µM [inhibitor, partial curve]
CCCn1c(SCC(=O)c2cc(C)n(-c3ccc4c(c3)OCO4)c2C)n[nH]c1=O 44.7 µM [inhibitor, partial curve]
CCOC(=O)Cn1c(=O)oc2cc(S(=O)(=O)NCc3ccccn3)ccc21 31.6 µM [inhibitor, single point]
COc1ccc(C)cc1Nc1n[n+](-c2ccccc2)c(-c2ccc(SC)cc2)s1 50.1 µM [inhibitor, partial curve]
Cc1cccc(NC(=O)c2c(NC(=O)C(F)(F)F)sc3c2CCCCC3)c1 50.1 µM [inhibitor, partial curve]

Potency, active:
CCOc1cc(/C=N/N=C2/NC(=O)C(CC(=O)O)S2)ccc1OCc1ccc(Cl)cc1Cl (stereo not given) 39.8 µM

Activity change, negative = inhibition, inactive:
COc1cccc(CC(NC(C)=O)C(=O)NC2CCN(C(=O)C3CCCCC3)CC2)c1OC (stereo not given) -4.21%
Cc1nn(CC(=O)OCC(=O)c2ccc(OC(F)F)cc2)c(C)c1[N+](=O)[O-] -16.3%
N#Cc1nc(-c2ccc(OCc3ccc(Cl)cc3)cc2)oc1N1CCCC1 0.769% [at 57.1 µM]
COC(=O)c1ccc(Cn2nnc3sc4c(c3c2=O)CCC(C)C4)cc1 (stereo not given) 5.5%
O=C(COc1ccc2c(c1)OCO2)Nc1nnc(Cc2ccccc2)s1 -15.5%
O=C(c1ccc(=O)[nH]c1)N1CCN(S(=O)(=O)c2ccccc2)CC1 -18.1%
Cc1cccc(NS(=O)(=O)c2ccc3oc(=O)c4ncn(C)c4c3c2)c1C -12.1%
CCn1c(CSc2nnc(-c3ccncc3)n2CCOC)nc2cc(C(=O)O)ccc21 3.09%
O=C(CN1CCN(c2ccc(Cl)cc2)CC1)NCc1ccccc1 -22.2%
